# PubChem BioAssay AID504706 (National Center for Advancing Translational Sciences (NCATS), 2011)
# Hit rate of the full screen: of about 320,000 compounds, about 200 (0.062%) were called active. The shares of active, inactive and inconclusive entries below differ from those in the screen. Calls come from the whole dose curve; as a rule, active = well fitted activation curve with a large enough effect; inconclusive = small, poorly fitted or top-dose-only effect; inactive = no such curve, though single readings can be large or run the other way. No potency is given beside an inconclusive call; the fits are too rough.
# Test: qHTS assay for re-activators of p53 using a Luc reporter; note: nearly all actives have a fitted effect of over 45% in size
# Details: H1299 p53-A138V BP100-luciferase reporter, luminescence, 24 h; series mostly up to 92.2 µM
# Outline: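 H1299 (p53-null), stable ts p53-A138V + BP100-Luc; 1000 cells/well, Opti-MEM/10% FBS; cpd 4 pt, 1:5; 24 h, 37 deg C, 5% CO2; detection reagent 10 min RT; luminescence.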
# Potency is the fitted concentration of half-maximal effect; tags give direction and shape of the fitted curve.
row,Compound,Potency
1,CCC(=O)Nc1cccc(C(=O)/C=C/c2cccs2)c1,inactive
2,O=C(OCC(=O)N1CCCCCC1)c1ccccc1Br,"inconclusive [activator, partial curve, poor fit]"
3,CCOC(=O)c1c(C)[nH]c(N=Nc2ccccc2Cl)c1C,"inconclusive [activator, full curve, poor fit]"
4,O=C(Cn1cc(C(F)(F)F)cc(Cl)c1=O)NCc1ccc(F)cc1,"inconclusive [activator, full curve, poor fit]"
5,COc1ccc(NC(=O)N(Cc2cc3cc(OC)ccc3[nH]c2=O)CC2CCCO2)cc1 (configuration not stated),inactive
6,CCCCn1c(N)c(N(CC(C)C)C(=O)C2=NN(c3cc(C)ccc3C)C(=O)CC2)c(=O)[nH]c1=O,inactive
7,CC(=NCCN1CCOCC1)C1=C(O)c2ccccc2C1=O,"inconclusive [activator, full curve, poor fit]"
8,O=[N+]([O-])c1nn(-c2ccc3c(c2)OCCO3)n(O)c1=NC1CCCC1,"inconclusive [activator, full curve, poor fit]"
9,O=C(Cn1nnc2c(cnn2-c2ccccc2)c1=O)NCc1cccs1,"inconclusive [activator, single point]"
10,CCc1cccc(C)c1NC(=S)NCCc1c(C)[nH]c2ccc(C)cc12,inactive
11,O=C(Nc1nc(COc2ccccc2)cs1)C1CCC1,"inconclusive [activator, full curve, poor fit]"
12,Cc1cccc(Cc2cnc(NC(=O)c3ccc(C)o3)s2)c1,"inconclusive [activator, partial curve, poor fit]"
13,CC(C)(C)c1cc(CN2CCN(CCO)CC2)cc(C(C)(C)C)c1O,"inconclusive [activator, partial curve, poor fit]"
14,COc1ccc(NS(=O)(=O)c2cc(NC(=O)c3cccnc3Cl)ccc2N2CCCC2)cc1,inactive
15,c1csc(-c2cnc3ccccc3n2)c1,"inconclusive [activator, full curve, poor fit]"
16,C=CCn1c(-c2ccc(OC)cc2)nc2nc3ccccc3nc21,inactive
17,O=C(NCC1CCCCC1)c1cc(S(=O)(=O)N2CCOCC2)ccc1F,inactive
18,CCOC(=O)[C@H]1[C@H]2COc3ccccc3[C@@H]2N2C(=O)CN(CC3CCCO3)C(=O)[C@@]12C (some centres not stated),inactive
19,O=C(COC(=O)c1ccc(O)cc1O)NC1CCCCCC1,"inconclusive [activator, full curve, poor fit]"
20,CN(C(=O)CSc1nnnn1-c1ccc(O)cc1)C1CCS(=O)(=O)C1 (configuration not stated),"inconclusive [activator, partial curve, poor fit]"
21,CCNS(=O)(=O)c1ccc2c(c1)n(C)c(=O)n2C,inactive
22,CC(=O)Nc1cccc(NC(=O)c2cc(C)on2)c1,"inconclusive [activator, partial curve, poor fit]"
23,Cc1ccnc2c1ccc1c(C)ccnc12,"inconclusive [activator, full curve, poor fit]"
24,Cc1ccc(C)c(S(=O)(=O)NCC(=O)OCC(=O)Nc2sccc2C(N)=O)c1,inactive

row,Compound,Potency
1,CCOC(=O)C1CCCN(C(=O)c2ccccc2NC(C)=O)C1 (configuration not stated),"inconclusive [activator, full curve]"
2,CC(C)Nc1nc(Cl)nc(NCCOc2ccccc2)n1,inactive
3,NC(=O)c1cc2ccc(O)cc2oc1=Nc1ccccc1,"inconclusive [activator, partial curve, poor fit]"
4,O=C(Cc1ccccc1)NCc1ccc2c(c1)OCO2,"inconclusive [activator, partial curve, poor fit]"
5,Cc1cs/c(=N\N=C\c2ccccc2)n1Cc1ccco1,"inconclusive [activator, full curve, poor fit]"
6,C/C(=N\N1CCN(c2ccccc2)CC1)c1ccco1,"inconclusive [activator, single point]"
7,Cc1nnc(Cl)c2nn(-c3ccccc3F)c(C)c12,inactive
8,COc1cccc(/C=C/C(=O)NNC(=O)c2ccco2)c1OC,inactive
9,O=C(NC1=NCCS1)C1CCN(S(=O)(=O)c2cc([N+](=O)[O-])ccc2Cl)CC1,"inconclusive [activator, single point]"
10,COc1ccc(C(=O)Nc2ccc(C(=O)NCCc3ccc(OC)c(OC)c3)cc2)cc1,inactive
11,COc1ccc(-c2ccc(CCC(=O)O)n2-c2ccccc2O)cc1,"inconclusive [activator, partial curve, poor fit]"
12,COc1cc2c3nnc(-c4ccc(F)cc4)c-3cn(Cc3ccccc3)c2cc1OC,"inconclusive [activator, full curve, poor fit]"
13,Cc1cccc(NC(=O)CC2CCC2)c1,"inconclusive [activator, partial curve, poor fit]"
14,O=C(N/N=C/c1ccccc1O)c1cccc2ccccc12,"inconclusive [activator, partial curve, poor fit]"
15,CCSc1nc2ccccc2n1C(=O)c1ccc(S(=O)(=O)N2CCCCCC2)cc1,"inconclusive [activator, full curve, poor fit]"
16,O=C(Nc1ccccc1N1CCCC1)c1ccc2ccccc2c1,"inconclusive [activator, single point]"
17,CCCC(=O)c1ccc(N2CCC(C)CC2)c(F)c1,"inconclusive [activator, partial curve, poor fit]"
18,O=C(N/N=C1/CCSC1)c1cc(Br)ccc1O,inactive
19,CCCCC#Cc1cncc(C(=O)NN)c1,inactive
20,Nc1ccc(N2CCCCC2)cc1N1CCCCC1,"inconclusive [activator, partial curve, poor fit]"
21,CCOC(=O)Cn1cnc(-c2ccc([N+](=O)[O-])cc2)c1,"inconclusive [activator, partial curve, poor fit]"
22,COc1ccc(NC(=O)c2nc3nccc(C)n3n2)cn1,"inconclusive [activator, full curve, poor fit]"
23,N=c1oc2ccccc2cc1C(=O)Nc1cccc(F)c1,"inconclusive [activator, partial curve, poor fit]"
24,c1ccc(-c2nc(CSc3nnc(-c4cccs4)o3)cs2)cc1,"inconclusive [activator, partial curve, poor fit]"

row,Compound,Potency
1,Cc1ccc(-n2cc(C(C)(C)C)[nH]c2=S)cc1,"inconclusive [activator, partial curve, poor fit]"
2,Cc1cc(C(=O)OCC(=O)N2CCCC2)c2ccccc2n1,inactive
3,CCC(Oc1ccccc1)C(=O)N1CCC(C(N)=O)CC1 (configuration not stated),"inconclusive [activator, full curve, poor fit]"
4,COc1ccc(-c2cc(C(=O)NN)n(-c3ccccc3)n2)cc1,"inconclusive [activator, full curve, poor fit]"
5,O=C(Nc1ccc(Br)cc1)Nc1ccccc1F,inactive
6,CCC(=O)N1CCc2cc(S(=O)(=O)CCC(=O)NC3CCCCC3)ccc21,inactive
7,CCCNC(=O)Nc1nc2ccccc2s1,inactive
8,CCN1CCN(C(c2cccs2)C(C)NS(=O)(=O)c2ccc(F)cc2)CC1 (configuration not stated),"inconclusive [activator, single point]"
9,O=C(CCCOc1ccc(Cl)cc1Cl)N/N=C/c1ccccc1O,"inconclusive [activator, single point]"
10,Cc1cccc(OCCOCCSc2ncccn2)c1,"inconclusive [activator, single point]"
11,Cc1cc(C)c2c(N)c(C(=O)c3ccccc3)sc2n1,inactive
12,C/C(=N\NC(=O)c1ccc(Cl)cc1)c1ccccn1,"inconclusive [activator, partial curve, poor fit]"
13,CC1C(=O)NN=C1C(=O)N/N=C\C(Br)=C\c1ccccc1 (configuration not stated),"inconclusive [activator, single point]"
14,CCCCC(=O)Nc1ccc2c(c1)OCCO2,"inconclusive [activator, partial curve, poor fit]"
15,Cc1nnc(SCC(=O)Nc2nc(-c3ccccc3)cs2)n1N,"inconclusive [activator, single point]"
16,Cc1occc1C(=O)NCCc1cccc(Cl)c1,"inconclusive [activator, partial curve, poor fit]"
17,Cc1ccc(NC(=S)NC2CCCC2)cc1C,"inconclusive [activator, partial curve, poor fit]"
18,CCN(CC)CCNC(=O)c1cn(CCOC)c(=O)c2c1c1ccccc1n2C,inactive
19,Clc1nnc2ccc(-c3ccccc3)nn12,inactive
20,COc1ccc(/C=N/N2C(=O)c3ccccc3C2=O)cc1,"inconclusive [activator, single point]"
21,Cc1cc(NS(=O)(=O)c2ccc(NC(=O)c3ccccc3F)cc2)no1,inactive
22,Nc1nonc1-n1nnc(C(=O)N/N=C/c2ccc(Br)cc2)c1CSC1=NCCS1,"inconclusive [activator, partial curve, poor fit]"
23,CCOC(=O)N1CCN(C(=S)NC(=O)c2ccc(F)cc2)CC1,inactive
24,CC1CCCN(C(=O)COC(=O)C2=COCCO2)C1 (configuration not stated),"inconclusive [activator, partial curve, poor fit]"
